# The other results are listed elsewhere or left out.
# Assays:
# Assay in all cases: glycan array binding signal (z-score within array); higher = stronger binding
# Details in all cases: glycan notation: IUPAC condensed, linker removed
# [1] = target: Fuc(a1-2)Gal(b1-4)GlcNAc(b1-3)Gal(b1-4)GlcNAc(b1-2)Man(a1-3)[Fuc(a1-2)Gal(b1-4)GlcNAc(b1-3)Gal(b1-4)GlcNAc(b1-2)Man(a1-6)]Man(b1-4)GlcNAc(b1-4)GlcNAc
# Procedure, shortened: (§1)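 The binding signal is a Z-score computed within each array and averaged over linkers. Arrays of the same protein sequence at different concentrations or buffers were also averaged together. Data originate from 3228 arrays in the Consortium for Functional Glycomics database, kept only where the protein sequence was available.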
# [2] = target: Fuc(a1-2)Gal(b1-4)GlcNAc(b1-3)Gal(b1-4)GlcNAc(b1-3)Gal(b1-4)GlcNAc
# Procedure, shortened: as §1
# [3] = target: Fuc(a1-2)Gal(b1-4)GlcNAc(b1-3)GalNAc
# Procedure, shortened: as §1
# [4] = target: Fuc(a1-2)Gal(b1-4)GlcNAc(b1-3)[Fuc(a1-2)Gal(b1-4)GlcNAc(b1-6)]GalNAc
# Procedure, shortened: as §1
# [5] = target: Fuc(a1-2)Gal(b1-4)GlcNAc(b1-3)[Fuc(a1-3)[Gal(b1-4)]GlcNAc(b1-6)]Gal(b1-4)Glc
# Procedure, shortened: as §1
# [6] = target: Fuc(a1-2)Gal(b1-4)GlcNAc(b1-6)GalNAc
# Procedure, shortened: as §1
# [7] = target: Fuc(a1-2)Gal(b1-4)GlcNAc6S
# Procedure, shortened: as §1
# [8] = target: Fuc(a1-2)Gal(b1-4)[Fuc(a1-3)]GlcNAc
# Procedure, shortened: as §1
# [9] = target: Fuc(a1-2)Gal(b1-4)[Fuc(a1-3)]GlcNAc(b1-2)Man(a1-3)[Fuc(a1-2)Gal(b1-4)[Fuc(a1-3)]GlcNAc(b1-2)Man(a1-6)]Man(b1-4)GlcNAc(b1-4)[Fuc(a1-6)]GlcNAc
# Procedure, shortened: as §1
# [10] = target: Fuc(a1-2)Gal(b1-4)[Fuc(a1-3)]GlcNAc(b1-2)[Fuc(a1-2)Gal(b1-4)[Fuc(a1-3)]GlcNAc(b1-4)]Man(a1-3)[Fuc(a1-2)Gal(b1-4)[Fuc(a1-3)]GlcNAc(b1-2)Man(a1-6)]Man(b1-4)GlcNAc(b1-4)GlcNAc
# Procedure, shortened: as §1
# [11] = target: Fuc(a1-2)Gal(b1-4)[Fuc(a1-3)]GlcNAc(b1-3)Gal(b1-4)[Fuc(a1-3)]GlcNAc
# Procedure, shortened: as §1
# [12] = target: Fuc(a1-2)Gal(b1-4)[Fuc(a1-3)]GlcNAc(b1-3)Gal(b1-4)[Fuc(a1-3)]GlcNAc(b1-3)Gal(b1-4)[Fuc(a1-3)]GlcNAc
# Procedure, shortened: as §1
# [13] = target: Fuc(a1-2)Gal(b1-4)[Fuc(a1-3)]GlcNAc(b1-3)GalNAc
# Procedure, shortened: as §1
# [14] = target: Fuc(a1-2)Gal(b1-4)[Fuc(a1-3)]GlcNAc(b1-3)[Neu5Ac(a2-6)Gal(b1-4)GlcNAc(b1-6)]Gal(b1-4)Glc
# Procedure, shortened: as §1
# [15] = target: Fuc(a1-2)Gal3S(b1-4)GlcNAc
# Procedure, shortened: as §1
# [16] = target: Fuc(a1-2)Gal6S(b1-3)GlcNAc
# Procedure, shortened: as §1
# [17] = target: Fuc(a1-2)Gal6S(b1-3)GlcNAc6S
# Procedure, shortened: as §1
# [18] = target: Fuc(a1-2)Gal6S(b1-4)Glc
# Procedure, shortened: as §1
# [19] = target: Fuc(a1-2)Gal6S(b1-4)Glc6S
# Procedure, shortened: as §1
# [20] = target: Fuc(a1-2)[Gal(a1-3)]Gal
# Procedure, shortened: as §1
# [21] = target: Fuc(a1-2)[Gal(a1-3)]Gal(b1-3)GalNAc
# Procedure, shortened: as §1
# [22] = target: Fuc(a1-2)[Gal(a1-3)]Gal(b1-3)GalNAc(b1-3)Gal(a1-4)Gal(b1-4)Glc
# Procedure, shortened: as §1
# [23] = target: Fuc(a1-2)[Gal(a1-3)]Gal(b1-3)GlcNAc
# Procedure, shortened: as §1
# [24] = target: Fuc(a1-2)[Gal(a1-3)]Gal(b1-3)GlcNAc(b1-2)Man(a1-3)[Fuc(a1-2)[Gal(a1-3)]Gal(b1-3)GlcNAc(b1-2)Man(a1-6)]Man(b1-4)GlcNAc(b1-4)GlcNAc
# Procedure, shortened: as §1
# [25] = target: Fuc(a1-2)[Gal(a1-3)]Gal(b1-3)GlcNAc(b1-2)Man(a1-3)[Fuc(a1-2)[Gal(a1-3)]Gal(b1-3)GlcNAc(b1-2)Man(a1-6)]Man(b1-4)GlcNAc(b1-4)[Fuc(a1-6)]GlcNAc
# Procedure, shortened: as §1
# [26] = target: Fuc(a1-2)[Gal(a1-3)]Gal(b1-3)GlcNAc(b1-3)GalNAc
# Procedure, shortened: as §1
# [27] = target: Fuc(a1-2)[Gal(a1-3)]Gal(b1-3)GlcNAc(b1-6)GalNAc
# Procedure, shortened: as §1
# [28] = target: Fuc(a1-2)[Gal(a1-3)]Gal(b1-4)Glc
# Procedure, shortened: as §1
# [29] = target: Fuc(a1-2)[Gal(a1-3)]Gal(b1-4)GlcNAc
# Procedure, shortened: as §1
# [30] = target: Fuc(a1-2)[Gal(a1-3)]Gal(b1-4)GlcNAc(b1-2)Man
# Procedure, shortened: as §1
binder,measurement,setting,value
"Cp ZmpB (Clostridium perfringens), Q0TR08 (protein) MNKRKIAAIILATMITNLSATTIDVLAQELNTKNNSKVEVSHDDESHQARVSKFDLYNSDKLDAYNQEFQVSRSNIKSINNNGGKYNSSTIDKAIDGNLETHWETGKPNDANFTNEVVVTFNEITNIDRIVYSARRDSARGKGFAKEFEIYASLKDEGDDFNLVSSGEYTESTRDLVEIKFNPTDFKRLKFKFKKADQNWASAAEFMFYKEDKLNEKFNGLFTDSSMNKVSEEFNTLEKLNAFENELKDHPIYDLYKEGLNNARAILTETSENPTKATLGQITYNLNDDYNNQYRMPYKNIKAIKNNGRHYAAQNIEKAIDNDVNTYWETGTLNSSSFNNEVEVEFNDLVTLDRIVYGSRQSDLKGFAEEVYIYASRTSKGDTYKLVATGAHEATKGLVEAKFEPTEFKRVKFKFKKSKQNSATLNELMFYKPDEVYSSIPKLFTDGTMSELSEEFNSLEKINAFKEKAKNHPLYNDFNETIELAESLISNPRKEDVLELEMRGDSISEAKKRKVWNFQDWQITGLSARAGDKITVYVDVAEGDPTPTLLYKQSLTQHGGATSFQLKPGKNEITIPEINYESNGIPKDVIQGGDLFFTNYKSDSQKRAPKVRIEGASKYPVFILGKSDENEVMKELEAYVEKIKAEPKTTPNIFAVSSNKSLEFVQATYALDWYKKNNKTPKYTAEQWDQYIADAMGFWGFDNSKDVNSDFNFRIMPMVKNLSGGAFMNAGNGVIGIRPGNQDAILAANKGWGVAHELGHNFDTGGRTIVEVTNNMMPLFFESKYKTKTRITDQNIWENNTYPKVGLDDYSNNELYNKADSTHLAQLAPLWQLYLYDNTFYGKFERQFRERDFGNKNREDIYKSWVVAASDAMELDLTEFFARHGIRVDDKVKEDLAKYPKPDKKIYYLNDLAMNYKGDGFTENAKVSVSTSGSNGNIKLSFSVDDENKDNILGYEIRRDGKYVGFTSNDSFVDTKSNLDEDGVYVVTPYDRKLNTLNPIEVNALQPTLSVNPVITLALGEEFNEEEYIVAKDIKGNSLSESVKVKSSNVNTSKVGEYEVLYSLEDSKGNEYTKTSKVNVVSRKEYMSDLTPKQSSNGWGTVRKDKSISGGVIGLTRDGDFVDYNKGLGLHSNAEYVYDLEGKDYDYFESYVGVDKAMSSRPASSVIFKVLVDGEEKFNSGVMRSTTPQKYVKVDVKNAKELKLIVNDAGDGDSSDHASFGDAKLATLSSKPIIKGENLAYSMDEKVDLMKGITATDIEDGNITSKVQIKSSDFVEGKSGIFTVVYSVTDSDGLTSECSRTIAVTDKETQLSDLNWKSATIGSGSVRKDRAVSGNQIRLLNEDNSVETFAKGIGTHSYSEIVYNSEGYDIFDTWVGIDRHVADKKVSSVKFKVYVDGELKAETDVMRIDTPKKRLVVDVRNSKEIKLVVDVADNGNNWDHADWADAKFRNLAEYDASELNKAIEEAKKLDLNNYTEESSEALKNAISKGEEALLSKDKETINSALEELNKEMNSLVKVDLNAVINIPDKYLLKSIQNQLNKTGDITLGDMYSLTTLTLSGVEDLTGLENAKNLETLNMDYNEVKDLRPLSKLKKLNTLNAQEQFIAAGELKPSNGKVIGDSKVYNREGKNVAKTIRVVDKNGNTILEQDAKDEFTINTKDLSSGLYGVHVLFEDEGFSGVMFYLFNV",glycan array binding signal (z-score),[1],-0.183
same,glycan array binding signal (z-score),[2],-0.016
same,glycan array binding signal (z-score),[3],0.357
same,glycan array binding signal (z-score),[4],-0.356
same,glycan array binding signal (z-score),[5],-0.084
same,glycan array binding signal (z-score),[6],-0.302
same,glycan array binding signal (z-score),[7],-0.348
same,glycan array binding signal (z-score),[8],-0.118
same,glycan array binding signal (z-score),[9],-0.251
same,glycan array binding signal (z-score),[10],0.471
same,glycan array binding signal (z-score),[11],0.231
same,glycan array binding signal (z-score),[12],-0.268
same,glycan array binding signal (z-score),[13],-0.344
same,glycan array binding signal (z-score),[14],-0.162
same,glycan array binding signal (z-score),[15],0.091
same,glycan array binding signal (z-score),[16],-0.122
same,glycan array binding signal (z-score),[17],-0.142
same,glycan array binding signal (z-score),[18],0.304
same,glycan array binding signal (z-score),[19],-0.313
same,glycan array binding signal (z-score),[20],-0.103
same,glycan array binding signal (z-score),[21],-0.276
same,glycan array binding signal (z-score),[22],-0.149
same,glycan array binding signal (z-score),[23],-0.118
same,glycan array binding signal (z-score),[24],-0.346
same,glycan array binding signal (z-score),[25],-0.03
same,glycan array binding signal (z-score),[26],0.227
same,glycan array binding signal (z-score),[27],0.261
same,glycan array binding signal (z-score),[28],0.009
same,glycan array binding signal (z-score),[29],0.021
same,glycan array binding signal (z-score),[30],0.008
